This data set concerns ATP. As to the kind of experiment: switch fluorescence ratio, 500 uM ATP over buffer (Cy3 cluster intensity, sum of 5 cycles each) (fold (ratio)); higher = stronger signal-on switching upon ATP binding; sequences stand for … in TCGTCGGCAGCGTCAGATGTGTATAAGAGACAGTTTTTTTTTTTTTTTTTTTTTTTTT…TC. Conditions: aptamer strand: ATP DNA aptamer (quencher-CACCTGGGGGAGTATTGCGGAGGAAGG + anchor), 100 nM annealed; ATP concentration: 500 uM; one replicate. Put shortly:
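Five buffer/ATP imaging cycles were run on Cy3-labelled switching-strand clusters on a modified Illumina MiSeq flow-cell, with NaOH stripping and re-annealing between cycles. In each cycle, clusters annealed to 100 nM quencher-labelled ATP aptamer were imaged in selection buffer, then after 15 min with 500 uM ATP at 22 °C. Per cluster, the fluorescence ratio is summed target-cycle over summed buffer-cycle Cy3 intensity, averaged per switch-domain sequence. Only clusters within 100-1000 RFU were kept.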

Results on 120 sequences are retold here after the supplement of paper PMC10126150.

Values marked as one replicate rest on one cluster of the flow cell; about a third of the high ones do not repeat.
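Also: ATP exposure 15 min at 22 °C before imaging.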

CAATCAGACT: the switch fluorescence ratio was 0.976. On to CGGGAATGCT, for which the switch fluorescence ratio turned out to be 1.25. In the case of TTCGCCCACT, the switch fluorescence ratio is 1.26.

Take CTGGAACATC: the switch fluorescence ratio stood at 1.06. The same measure for CTATTGCAC: 1.07; for TAAACTAGGG: 1.07; for TCCAGCCGAT: 1.03. The same measure for CACATCCGCT: 1.32; for TTATGGGAT: 0.99; for CTCCCTCGTC: 1.17. As for TCAGTATGGT, the figure is 0.975; as for TCCGTCGCCT, 0.945; as for TGGTTCAGCG, 0.944.

In the case of GGTGAGGAGG, the switch fluorescence ratio worked out at 0.992. The same measure for TATGATTTAG: 0.943; for AGATCTTTTG: 1.05; for TATATGTACA: 0.964. As to CGTCAAGTCT, the switch fluorescence ratio came out at 1.1.

Take CCTTTCAGGT: the switch fluorescence ratio worked out at 0.96. The same measure for AAAGTTCAGC: 0.997. The same measure for CCAGAAAGAG: 1; for GGCCACTTGC: 1. The same measure for TGACGTTACT: 1.31; for GATCTGTACG: 0.989. For the sequence TGGTGCGTGA, the switch fluorescence ratio is 1.01. For GACGCAACGG, the switch fluorescence ratio was found to be 2.17. As for TATGTCAGGA, the figure is 0.982; as for AATGTACGGT, 1.08. The same measure for GGTTGGTAGA: 1.01; for AGGATGCGT: 1.03. As for CCTATGTAAT, the figure is 3.32. For the sequence AAAAAAAGTG, the switch fluorescence ratio came out at 1.03. The same measure for AGGGTCCCAT: 1.03. Regarding GAAATCCTTC, the switch fluorescence ratio was found to be 1.39.

CTCAAGTGT: the switch fluorescence ratio is 1.01. Turning to ATCGTCGAC, the switch fluorescence ratio amounted to 1.

Take TTGTGCCGAG: the switch fluorescence ratio was found to be 1.01. As for GTCTCTATGC, the figure is 0.943; as for TGTGCTTCG, 1.01.

For the sequence GATTGGCCTG, the switch fluorescence ratio was determined as 1.02.

For the sequence TACTTGCTA, the switch fluorescence ratio was found to be 0.988.

As for GGTGGGCCTA, the switch fluorescence ratio came to 1.02. The same measure for ACGGGAGCCG: 0.951; for TACAGGATGA: 0.998; for GTGCTATGTA: 1. The same measure for ATTGTGTAGT: 1. The same measure for GCGGTGTGAG: 0.982. On to CGGTACTTGT, for which the switch fluorescence ratio was 0.987. The same measure for GTCACTCCGG: 1.14; for CTATGGATGT: 0.973; for TCAACGGTTA: 1.02. ATTGGTGCTC: the switch fluorescence ratio turned out to be 0.964.

On to CGGTGAGGTG, for which the switch fluorescence ratio came out at 1.05.

Take AGCAGGTATA: the switch fluorescence ratio stood at 0.993.

With ACTCGTAAG, the switch fluorescence ratio was found to be 1.02.

CGCCTCTCTA: the switch fluorescence ratio stood at 1.03. The same measure for AAAATGAATA: 0.942; for AATTTAATTC: 0.959; for CAGCCTTTTT: 0.998. The same measure for TGATTTGCGG: 0.956; for AGCACGGTAG: 0.973; for TGGGAGACGT: 0.936.

Take AAACCGGGTT: the switch fluorescence ratio was 0.996. The same measure for CGGCACTCCG: 1; for CCGGGTATCG: 1; for CTTGGTTGTC: 0.996.

As for CGAGGGCAGA, the switch fluorescence ratio came to 1.07. As for GCTCGAAAAA, the figure is 0.995; as for GGCGAAGTTA, 0.98; as for ACTTCCTTTG, 1.7. The same measure for AAGTTGTACC: 1.01; for TTAGCAAAGA: 2.84.

GGGGATGCA: the switch fluorescence ratio was 0.988. As for ACCAACGCAT, the figure is 2.13; as for TTAAGAAGGG, 1; as for CATAAATGGC, 0.962. With CATAAAGGCC, the switch fluorescence ratio turned out to be 0.979. Turning to ATTTATTTGA, the switch fluorescence ratio amounted to 0.996.

Consider GACATTTTCT, for which the switch fluorescence ratio stood at 0.954. The same measure for TACGAACTT: 1.41. The same measure for TCAGCTCATT: 1.02; for CACTCTCAAA: 1.04; for CTGGTAACAG: 0.971. As for AACCTGAGGT, the figure is 0.951. On to TGAAGGCCAG, for which the switch fluorescence ratio came to 1.01. For ACCACAATTA, the switch fluorescence ratio was found to be 1.06. The same measure for TTATAAAATG: 1.03; for CAGGTCCATA: 0.977. Regarding GGCGTACATA, the switch fluorescence ratio came out at 0.987.

Turning to GATGTGGCTC, the switch fluorescence ratio worked out at 1.02. As for TACTAGTCCT, the figure is 1.02.

Take GATTTTGTCA: the switch fluorescence ratio turned out to be 1.02. As for TCCCACGACT, the figure is 1.09; as for GTGAAAATCC, 1.07; as for TAGCGGGGT, 0.987. The same measure for ACTAAGGAGT: 1.04; for GTGTGCGTTT: 1.02; for AGGCTTCGGG: 0.994. As for GTTTAGCAGG, the figure is 1; as for AATGCACAGC, 1.07; as for TGAAACTCCG, 1.14. As to AATGTTGGTC, the switch fluorescence ratio is 0.98. Take AGATACGTCT: the switch fluorescence ratio was 1.01.

On to CAGTCAAGCA, for which the switch fluorescence ratio was determined as 1.04. As for TTTGACCTT, the figure is 1.27; as for GAAATTAGCT, 0.996. As for GATGGTATCT, the figure is 0.971; as for CATAACCGTG, 1.04.

On to TCAAGGATCA, for which the switch fluorescence ratio worked out at 0.969. For the sequence CTTTGATCTT, the switch fluorescence ratio was 0.999. The same measure for TGCTCGGCGG: 1.03. The same measure for GCAGTGAATA: 1.04. The same measure for CTAGTGCACC: 1.01. As for GGCTTAGGCG, the switch fluorescence ratio was 0.978.

Consider GCGACGGCTT, for which the switch fluorescence ratio is 1.05. Turning to TCACTGTTCG, the switch fluorescence ratio is 0.978. As for ACGTCATCTT, the figure is 1.11; as for TGCAGCGGCA, 1; as for TATGATGTGT, 1. As for AGTGGATGCC, the figure is 1.06.
